According to patent US11000038B2, “Pyridone compounds and agricultural and horticultural fungicides containing the same as active ingredients” (priority 2017, dated 2021):

Legend:
[1] = tested on: cabbage Alternaria sooty spot fungi (Alternaia brassicicola); assay: Test Example C: cabbage Alternaria sooty spot, spray treatment of cabbage plants; format: in vivo; conditions: for Test C control value: cabbage Alternaria sooty spot; for Test C control value class (cabbage Alternaria sooty spot): control value=100{1-(n/3)}
Excerpt: [Test Example C] Cabbage Alternaria Sooty Spot
Test plants (cabbage variety: Shikidori) were cultivated until the cotyledons extended after the sowing of seeds.
<Control Value> Control value=100{1−(n/3)}

[2] = tested on: wheat brown rust fungi (Puccinia recondita); assay: Test Example E: wheat brown rust, spray treatment of wheat plants; format: in vivo; conditions: for Test E control value: wheat brown rust; for Test E control value class (wheat brown rust): control value=100{1-(n/3)}
[3] = tested on: gray mold fungi (Botrytis cinerea); assay: Test Example B: tomato gray mold, spray treatment of tomato plants; conditions: for Test B control value: tomato gray mold; for Test B control value class (tomato gray mold): control value=100{1-(n/3)}
[4] = tested on: grape downy mildew fungus (Plasmopara viticola); assay: Test Example G: grape downy mildew, spray treatment of grape plants; conditions: for Test G control value: grape downy mildew, 7 to 10 days after inoculation; for Test G control value class (grape downy mildew): 2.5 ml/pot, grape Neomuscat, 7 to 10 days from inoculation
[5] = tested on: barley powdery mildew fungi (Blumeria graminis f. sp. hordei); assay: Test Example D: barley powdery mildew, spray treatment of barley plants; conditions: for Test D control value: barley powdery mildew; for Test D control value class (barley powdery mildew): control value=100{1-(n/3)}
[6] = spray treatment of cabbage plants
[7] = spray treatment of wheat plants
[8] = spray treatment of tomato plants
[9] = spray treatment of barley plants

Structure (SMILES) | Test C control value class (cabbage Alternaria sooty spot) [1, 6] | Test E control value class (wheat brown rust) [2, 7] | Test B control value class (tomato gray mold) [3, 8] | Test G control value class (grape downy mildew) ([4]; 250 ppm spray) | Test D control value class (barley powdery mildew) [5, 9] | also measured
Cc1ccc(-c2c(Cl)c(=O)c(Br)cn2-c2ccccc2C)cc1 [Compound 409] |  |  |  |  |  | Test C control value ([1]; spray treatment): L (L shows the control value of 50% or less); Test E control value ([2]; spray treatment): H (H shows the control value of more than 50%); Test B control value ([3]; spray treatment): L (L shows the control value of 50% or less); Test G control value ([4]; 250 ppm spray): L (L shows the control value of 50% or less); Test D control value ([5]; spray treatment): L (L shows the control value of 50% or less)
Cc1cc(-n2cc(Br)c(=O)c(Br)c2-c2c(F)cc(F)cc2F)no1 [Compound 146] | H (H shows the control value of more than 50%) | H (H shows the control value of more than 50%) | L (L shows the control value of 50% or less) | L (L shows the control value of 50% or less) | L (L shows the control value of 50% or less) | 
CCc1c(-c2c(F)cc(F)cc2F)n(-c2ccccc2C)cc(Br)c1=O [Compound 205] |  |  |  |  |  | Test C control value [1, 6]: H (H shows the control value of more than 50%); Test E control value [2, 7]: H (H shows the control value of more than 50%); Test B control value [3, 8]: H (H shows the control value of more than 50%); Test G control value ([4]; 250 ppm spray (2.5 ml/pot)): L (L shows the control value of 50% or less); Test D control value [5, 9]: H (H shows the control value of more than 50%)
O=c1c(Cl)cn(-c2ccccc2F)c(-c2c(F)cc(F)cc2F)c1Br [Compound 31] | H (H shows the control value of more than 50%) | H (H shows the control value of more than 50%) | H (H shows the control value of more than 50%) | L (L shows the control value of 50% or less) | H (H shows the control value of more than 50%) | 
Cc1ccccc1-n1cc(C)c(=S)c(C)c1-c1c(F)cc(F)cc1F [Compound 216] |  |  |  |  |  | Test C control value [1, 6]: H (H shows the control value of more than 50%); Test E control value [2, 7]: H (H shows the control value of more than 50%); Test B control value [3, 8]: H (H shows the control value of more than 50%); Test G control value ([4]; 250 ppm spray (2.5 ml/pot)): H (H shows the control value of more than 50%); Test D control value [5, 9]: H (H shows the control value of more than 50%)
Cc1ccc(O)cc1-n1cc(Br)c(=O)c(Cl)c1-c1c(F)cccc1F [Compound 426] |  |  |  |  |  | Test C control value ([1]; spray treatment): H (H shows the control value of more than 50%); Test E control value ([2]; spray treatment): H (H shows the control value of more than 50%); Test B control value ([3]; spray treatment): L (L shows the control value of 50% or less); Test G control value ([4]; 250 ppm spray): L (L shows the control value of 50% or less); Test D control value ([5]; spray treatment): L (L shows the control value of 50% or less)
Cc1ccccc1-n1cc(Cl)c(=O)c(Cl)c1-c1c(F)cccc1F [Compound 114] | H (H shows the control value of more than 50%) | H (H shows the control value of more than 50%) | H (H shows the control value of more than 50%) | L (L shows the control value of 50% or less) | L (L shows the control value of 50% or less) | 
Cc1ccccc1-n1cc(Br)c(=O)c(Br)c1-c1c(F)cccc1F [Compound 112] | H (H shows the control value of more than 50%) | H (H shows the control value of more than 50%) | H (H shows the control value of more than 50%) | L (L shows the control value of 50% or less) | L (L shows the control value of 50% or less) | 
CC(C)C(C)n1cc(Br)c(=O)c(Br)c1-c1c(F)cc(F)cc1F (stereo not drawn) [Compound 47] | H (H shows the control value of more than 50%) | H (H shows the control value of more than 50%) | H (H shows the control value of more than 50%) | L (L shows the control value of 50% or less) | H (H shows the control value of more than 50%) | 
Cc1cn(-c2ccccc2)c(-c2ccc(Cl)cc2F)c(C)c1=O [Compound 586] |  |  |  |  |  | Test C control value ([1]; spray treatment): H (H shows the control value of more than 50%); Test E control value ([2]; spray treatment): H (H shows the control value of more than 50%); Test B control value ([3]; spray treatment): H (H shows the control value of more than 50%); Test G control value ([4]; 250 ppm spray): H (H shows the control value of more than 50%); Test D control value ([5]; spray treatment): H (H shows the control value of more than 50%)
COc1cc(F)c(-c2c(Cl)c(=O)c(Br)cn2C2CCCCC2C)c(F)c1 (stereo not drawn) [Compound 171] | H (H shows the control value of more than 50%) | H (H shows the control value of more than 50%) | H (H shows the control value of more than 50%) | L (L shows the control value of 50% or less) | L (L shows the control value of 50% or less) | 
CCc1cn(-c2ccccc2C)c(-c2c(F)cc(F)cc2F)c(CC)c1=O [Compound 317] |  |  |  |  |  | Test C control value [1, 6]: H (H shows the control value of more than 50%); Test E control value [2, 7]: H (H shows the control value of more than 50%); Test B control value [3, 8]: H (H shows the control value of more than 50%); Test G control value ([4]; 250 ppm spray (2.5 ml/pot)): H (H shows the control value of more than 50%); Test D control value [5, 9]: H (H shows the control value of more than 50%)
COc1cc(F)c(-c2c(Br)c(=O)c(Br)cn2-c2ccccc2C)c(F)c1 [Compound 68] | H (H shows the control value of more than 50%) | H (H shows the control value of more than 50%) | H (H shows the control value of more than 50%) | H (H shows the control value of more than 50%) | H (H shows the control value of more than 50%) | 
O=c1c(Br)cn(-c2ccccc2Br)c(-c2c(F)cccc2F)c1Cl [Compound 90] | H (H shows the control value of more than 50%) | H (H shows the control value of more than 50%) | H (H shows the control value of more than 50%) | H (H shows the control value of more than 50%) | H (H shows the control value of more than 50%) | 
O=c1c(Cl)cn(-c2cc(F)ccc2Cl)c(-c2c(F)cccc2F)c1Cl [Compound 110] | H (H shows the control value of more than 50%) | H (H shows the control value of more than 50%) | H (H shows the control value of more than 50%) | L (L shows the control value of 50% or less) | H (H shows the control value of more than 50%) | 
